PubChem BioAssay AID463173 (ICCB-Longwood Screening Facility, Harvard Medical School, 2010)
The campaign covered roughly 52,000 compounds. About 1,700 (3.3%) were called active. Cut-off read from the data, not from the text of the source: active = survival mostly below about 52% (no sharp cut-off); inactive = mostly above about 56%. The list shows a part of the results.

Each compound was assayed on Wild type (assay: S. aureus survival, RN4220 and DeltatarO strains – OD600, teichoic acid synthesis inhibitors, primary screen (AID 463173)). Conditions: S. aureus RN4220 wild type/DeltatarO growth, OD600, 18 h, hits give low values, screened at 18.75 µg/mL (by protocol).

| SMILES | survival |
| --- | --- |
| Cc1cc(C)cc(NC(=O)CSc2oc(-c3ccccc3)nc2S(=O)(=O)c2ccc(Cl)cc2)c1 | inactive: 86% |
| CCOC(=O)c1ccccc1NC(=O)Cn1ncc2c1-c1ccccc1OC2 | inactive: 84% |
| CCc1ccccc1NS(=O)(=O)c1ccc2nc(-c3ccccc3)[nH]c2c1 | inactive: 82% |
| CC(C)OCCCNC(=O)C(=O)Nc1c2c(nn1-c1ccccc1)CS(=O)(=O)C2 | active: -6% |
| O=C(O)CNC(=O)c1sc2ccccc2c1Cl | inactive: 122% |
| Cc1ccc2c(c1)N(CC(=O)NCCc1ccccc1)C(=O)CO2 | inactive: 77% |
| O=C(O)c1ccc(-c2ccc(/C=N/N3C(=O)C4C(C3=O)C3C=CC4C34CC4)o2)cc1 (centres undefined) | inactive: 110% |
| CCCC(=O)Nc1cc2nn(-c3ccccc3)nc2cc1C | inactive: 82% |
| CCc1ccccc1NC(=O)Nc1c(C)n(C)n(-c2ccccc2)c1=O | inactive: 72% |
| Cc1ccc(C)c(Cn2c(=O)n(CCCCC(=O)NCc3ccc4c(c3)OCO4)c(=O)c3ccccc32)c1 | inactive: 110% |
| CCOC(=O)c1c(C)[nH]c(C)c1S(=O)(=O)N1CCC(C(=O)Nc2ccc(OCC)cc2)CC1 | active: -3% |
| CCCCn1cc(S(=O)(=O)c2cc(C)ccc2C)c(=O)c2cc(F)c(N3CCC(C)CC3)cc21 | inactive: 80% |
| CC(C)OCCCNc1ncnc2sc3c(c12)CCCC3 | inactive: 79% |
| COc1ccc(C(=O)NCC(c2ccco2)S(=O)(=O)c2ccc(F)cc2)cc1 (centres undefined) | inactive: 74% |
| N#Cc1cc2c(cc1C#N)Oc1ccccc1O2 | inactive: 108% |
| CCc1cccc(NC(=O)CN(c2ccc(C)c(C)c2)S(=O)(=O)c2ccsc2C(=O)OC)c1 | active: -6% |
| Cc1ccc(C)c(N2CCN(C(=O)CN3C(=O)COc4ccc(S(=O)(=O)N5CCCC5)cc43)CC2)c1 | inactive: 85% |
| CCCCN(CCCC)CCCNC(=O)Cn1cc2c(n1)-c1c(oc(C(=O)N3CCCC3)c1C)CC2 | inactive: 87% |
| O=C(NCc1ccco1)C1CC(c2ccccc2O)=NO1 (centres undefined) | inactive: 128% |
| CSc1ncc(C(=O)Nc2ccccc2C(F)(F)F)c(-c2ccccc2)n1 | inactive: 121% |
| CC(C)C(c1nnnn1Cc1ccccc1)N1CCN(c2ccccc2)CC1 (centres undefined) | inactive: 104% |
| CCCc1nc2nc(C)c(NS(=O)(=O)c3ccc(CC(C)C)cc3)c(=O)n2[nH]1 | inactive: 83% |

| SMILES | survival |
| --- | --- |
| CCOC(=O)c1ccc(N2C(=O)c3[nH]nc(-c4ccc(C)cc4)c3C2c2cccs2)cc1 (centres undefined) | inactive: 77% |
| N#C/C(=C/Nc1cccc2ccccc12)c1nc2ccccc2o1 | inactive: 103% |
| CCCn1c(CCC(=O)Nc2cc(C(=O)OC)cc(C(=O)OC)c2)nc2cccnc21 | inactive: 119% |
| Cc1ccccc1CCNC(=O)c1ccc2c(c1)nc1n2CCOC1 | inactive: 56% |
| COC(=O)c1scc(-c2ccc(C)cc2)c1S(=O)(=O)Nc1cc(Cl)c(OC)cc1OC | inactive: 73% |
| CCCCOc1ccc(Cn2c(=O)sc3ccccc32)cc1OC | active: -5% |
| CCCn1c(CCC(=O)Nc2cc(OC)cc(OC)c2)nc2cccnc21 | inactive: 79% |
| CCC(=O)N1c2ccccc2CC1C(=O)NCCc1cc(OC)c(OC)c(OC)c1 (centres undefined) | inactive: 152% |
| O=C(NCc1ccc2c(c1)OCO2)c1cccc(C(=O)NCc2ccc3c(c2)OCO3)c1 | inactive: 107% |
| Cc1cc(NC(=O)CCn2c(=O)c3cccn3c3cccnc32)ccc1Br | inactive: 113% |
| CC1=C(C)C(=O)N(c2ccccn2)C1=O | inactive: 111% |
| Cc1ccc(NC(=O)C2CCCN(S(=O)(=O)c3cccc4nsnc34)C2)cc1C (centres undefined) | inactive: 81% |
| COc1ccc(-n2c(=O)c3sc4ccccc4c3n(C)c2=O)cc1 | inactive: 83% |
| CCCN1CCN(c2nnc(-n3cccc3C(=O)Nc3cc(Cl)ccc3C)s2)CC1 | inactive: 82% |
| CCSc1ncc(Cl)c(C(=O)Nc2nc3ccc(S(C)(=O)=O)cc3s2)n1 | inactive: 106% |
| COc1cccc(/C=N/c2nc3ccccc3n2C)c1O | inactive: 106% |
| Cc1ccc(-c2nc(CS(=O)CC(=O)NCc3ccccc3Cl)c(C)o2)cc1 (centres undefined) | inactive: 72% |
| CCOC(=O)Cc1ccc(NC(=O)N2CCSc3ccccc32)cc1 | inactive: 70% |
| COc1ccccc1NC(=O)CSC1=Nc2ccccc2C2=NC(CCC(=O)NCc3ccco3)C(=O)N12 (centres undefined) | inactive: 72% |
| CCCN(CCC)CCCNC(=O)C1CCCN(Cc2nc(-c3ccc(Cl)cc3)oc2C)C1 (centres undefined) | inactive: 126% |
| COCCNC(=O)C1CCN(C(=O)c2cc3sccc3n2Cc2ccc(Cl)cc2)CC1 | inactive: 112% |
| COc1ccc(C2(Nc3cccc(F)c3)C(=O)c3ccccc3C2=O)cc1 | inactive: 58% |
